# According to PubChem BioAssay AID686978 (National Center for Advancing Translational Sciences (NCATS), 2013):
# The whole screen tested about 420,000 compounds, of which about 64,000 (15%) were called active. Inconclusive results, whose numbers are uncertain, are shown with a selection of clear calls. The call rests on the fitted dose curve; in most records, active means well fitted inhibition curve with a large enough effect; inconclusive means small, poorly fitted or top-dose-only effect; inactive means flat fitted curve, though single readings scatter. Potencies of inconclusive entries are left out as doubtful fits.
# Assay: qHTS for Inhibitors of human tyrosyl-DNA phosphodiesterase 1 (TDP1): qHTS in cells in absence of CPT; further: nearly all actives have a fitted effect of over 55% in size
# Details: DT40 Tdp1-/- hTDP1 cells, no CPT, ATP luminescence, 48 h; activity change, negative = growth inhibition: at 46.2 µM (top of the series)
# Outline: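 Chicken DT40 Tdp1-/- cells stably complemented with human TDP1 were seeded at 400 cells/well with DMSO in place of 20 nM camptothecin. After compound pinning, cells grew at least 48 hr at 37 °C; viability read by CellTiter-Glo luminescence.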
# On the % scale 0 is the no-effect control and ±100 the full control effect; potency means the concentration at half of the fitted maximal effect; tags describe the fitted curve by direction and shape.
Structure (SMILES),Potency,"activity change, negative = growth inhibition"
CCOc1ccc(-c2oc3ccccc3c(=O)c2O)cc1OCC,"inconclusive [inhibitor, single point]",
CC(O)(c1cccc(F)c1)c1nc(-c2ccccc2)cs1 (centres undefined),active: 18.4 µM,
CCN(CC)S(=O)(=O)c1ccc(OCC2CCCCO2)c([N+](=O)[O-])c1 (centres undefined),"inconclusive [inhibitor, single point]",
COc1ccccc1NC(=O)N1CC(=O)Nc2sc3c(c2C1c1ccccc1)CCCC3 (centres undefined),active: 18.4 µM,
COc1cccc(/C=N/NC(=O)C(=O)N2CCCCCC2)c1O,"inconclusive [inhibitor, single point]",
COc1ccc(S(=O)(=O)N2CCOC2CNC(=O)C(=O)NCc2ccco2)cc1C (centres undefined),"inconclusive [inhibitor, single point]",
CN(C)C(=O)c1cccc(COc2ccc(N3C(N)=NC(N)=NC3(C)C)cc2Cl)c1,active: 0.164 µM,
CCOc1cc(/C=N/N2C(=O)NC3(CCCCC3)C2=O)cc(Br)c1O,,inactive: -22.7%
CC1(C)Nc2ccc(O)cc2-c2c1ssc2=S,active: 2.06 µM,
COc1ccccc1NC(=O)C1=C(C)Nc2c(C(=O)Nc3ccc(F)cc3)cnn2C1c1ccc(Cl)cc1 (centres undefined),"inconclusive [inhibitor, single point]",
O=C1CC[C@H](O)CCN1[C@H](CSc1ccccc1)Cc1ccccc1,"inconclusive [inhibitor, partial curve]",
CC(=O)N1C[C@H]2CON(C)[C@H]2C[C@H]1c1ccc(-c2ccccc2)cc1,"inconclusive [inhibitor, partial curve]",
Cc1csc(NC(=O)CSc2nnc(-c3ccc(S(=O)(=O)N4CCCC4)cc3)o2)n1,,inconclusive: -32.8% [inhibitor]
CC(c1ccco1)N(C(=O)c1ccccc1NS(=O)(=O)c1cccc([N+](=O)[O-])c1)c1ccccn1 (centres undefined),"inconclusive [inhibitor, single point]",
Cc1cccc(N(C(=O)CCC(=O)Nc2cc(C)on2)C(C(=O)NC2CCCC2)c2ccccc2)c1 (centres undefined),"inconclusive [inhibitor, single point]",
CCCC(=O)NC(c1ccccc1)c1ccc2cccnc2c1O (centres undefined),active: 1.46 µM,
c1ccc(Sc2ncnc3ccccc23)cc1,"inconclusive [inhibitor, single point]",
O=C(/C(=C/c1ccncc1)n1ccnc1)c1ccc(Cl)cc1Cl,active: 13 µM,
COc1ccc(Cl)cc1NC(=O)COC(=O)c1c(-c2ccccc2)noc1C,"inconclusive [inhibitor, single point]",
